Reference: publication PMC6919601, “Identification of Plasmodium dipeptidyl aminopeptidase allosteric inhibitors by high throughput screening” (PLoS ONE, 2019)
In all, about 110,000 compounds went through this assay and about 230 (0.21%) showed an effect of 50% or more. This is one part of the list.

What follows are compounds tested against DPAP1 (Plasmodium falciparum, UniProt Q8IIJ9) (assay: primary screen, percent inhibition; read by cleavage of a fluorogenic dipeptide substrate; higher = more effect of the substance).
Chain of DPAP1 (Q8IIJ9 whole entry, looked up): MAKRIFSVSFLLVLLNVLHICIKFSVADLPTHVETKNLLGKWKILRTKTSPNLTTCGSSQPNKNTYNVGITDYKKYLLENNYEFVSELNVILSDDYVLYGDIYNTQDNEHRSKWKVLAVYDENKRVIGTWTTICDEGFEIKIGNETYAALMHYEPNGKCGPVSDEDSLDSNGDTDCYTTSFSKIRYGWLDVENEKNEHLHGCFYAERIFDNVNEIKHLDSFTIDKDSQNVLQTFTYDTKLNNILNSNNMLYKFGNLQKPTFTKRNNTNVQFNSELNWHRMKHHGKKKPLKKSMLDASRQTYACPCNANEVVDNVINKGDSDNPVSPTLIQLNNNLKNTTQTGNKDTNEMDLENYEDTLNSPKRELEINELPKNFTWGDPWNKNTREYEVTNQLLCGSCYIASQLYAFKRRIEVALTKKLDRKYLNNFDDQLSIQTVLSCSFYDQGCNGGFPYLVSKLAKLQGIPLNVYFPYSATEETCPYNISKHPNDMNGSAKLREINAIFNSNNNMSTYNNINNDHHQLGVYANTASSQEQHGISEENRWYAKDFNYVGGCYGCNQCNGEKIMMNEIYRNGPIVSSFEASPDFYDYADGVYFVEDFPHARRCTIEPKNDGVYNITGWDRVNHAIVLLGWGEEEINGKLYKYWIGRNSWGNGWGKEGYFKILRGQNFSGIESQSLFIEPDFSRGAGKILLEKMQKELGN
Design: species or system P. falciparum D10 trophozoite lysates; single well
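Also: 30 min substrate incubation versus DMSO and 10 µM JCP410 controls.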

SMILES | % Inhibition @ 10 uM [%]
O=S(=O)(c1ccc(Cl)cc1)N1CCC(N2CCCCC2)CC1 | 3.77
O=C(CN1C(=O)C(c2ccccc2)Oc2cccnc21)NCCCc1ccccc1 (stereo not shown) | -3.56
COC(=O)c1ccc(-c2cc(C(=O)O)c3c(-c4ccc(Br)cc4)[nH]nc3n2)cc1 | 6.88
COc1ccc(NC2=NC(=O)/C(=C\c3ccc(OC)c(O)c3)S2)cc1 | 15.7
COc1ccc(Cl)cc1NC(=O)CN(Cc1ccccc1)S(=O)(=O)c1ccc(C)cc1 | 0.992
Cn1cc(NC(=O)N2CCCCC2c2cccnc2)c2ccccc2c1=O (stereo not shown) | -0.808
Cc1cc(C)c2c(CC(=O)N(Cc3ccccc3)Cc3ccco3)coc2c1 | 4.18
Clc1ccc(CCNCc2ccncc2)c(Cl)c1 | -0.233
COCCNC(=O)C1Sc2nnc(-c3ccccc3)n2NC1c1ccc(Cl)cc1 (stereo not shown) | 3.35
CC1=C(C(=O)N(C)CCC#N)C2(CCCCC2)OC1=O | -0.354
Cc1ccc2ccccc2c1CSc1nc2c(c(=O)n(C)c(=O)n2C)n1C | 2.15
c1cnc(N2CCN(Cc3cccs3)CC2)nc1 | -4.5
CCN(CC)c1ccc(NS(=O)(=O)c2ccc(N)cc2)cc1 | 0.907
COc1ccc(C2=NC(C(F)(F)F)(C(F)(F)F)N=C3C=CC=C(C)N32)cc1 | -1.72
CCc1ccc(/C=c2\sc3nc(C4COc5ccccc5O4)nn3c2=O)cc1 (stereo not shown) | -5.2
CCn1c(C(=O)NCc2cccnc2)cc2sc(Cl)cc21 | -1.37
CC1=C(C(=O)N2CCCCC2)C(c2ccccc2F)C2=C(O)CCCC2=N1 (stereo not shown) | -5.05
COC(=O)C1=CN(C(C)C)C=C(C(=O)OC)C1c1ccc(C(C)C)cc1 | -1.48
COC(=O)c1c(NC(=O)c2ccc(OC)c(OC)c2)sc(C)c1C | -3.24
CC1CCc2c(C(=O)NCc3ccccc3)csc2C1 (stereo not shown) | 1.93
CCOc1cccc(-c2cc(C(=O)Nc3ccccn3)c3ccccc3n2)c1 | -3.23
CCOC(=O)c1cc(C)n(-c2ccc(C(=O)N3CCN(C(=O)OCC)CC3)cc2)c1C | -2.26
O=C(CSCc1ccccc1F)NCc1ccc(F)cc1 | -0.406
COc1cccc(NC(=O)c2c(-c3ccccc3Cl)noc2C)c1 | 5.31
N#CCc1ccc(NC(=O)COc2ccc3ccccc3c2)cc1 | 1.01

SMILES | % Inhibition @ 10 uM [%]
COc1ccc(CCNC(=O)CCCC(=O)O)cc1OC | 2.32
Cn1c(=O)c2nc(-c3ccc(OCc4ccccc4)cc3)[nH]c2n(C)c1=O | -1.28
COc1ccc(-n2nnc3c(=O)n(Cc4ccccc4Cl)cnc32)cc1 | 1.24
c1ccc(-c2nnc(CN3CCC4(CC3)OCCO4)o2)cc1 | 3.74
CC(NC(=O)Cn1cc(C#N)c2cc(Br)ccc21)c1ccccc1 (stereo not shown) | 0.776
COc1ccc(CNC(=O)Cn2ccc3cc(S(=O)(=O)N4CCC(C)CC4)ccc32)c(OC)c1 | 3.64
Cc1sc2nc3c4ccccc4c(Cl)nn3c(=O)c2c1C | 0.24
Cc1ccc(/C=c2\sc3nc(-c4ccncc4)nn3c2=O)cc1 | 5.12
CCN1CCN(CCNc2cc(C)nc3c(-c4ccc(OC)c(OC)c4)c(C)nn23)CC1 | -1.89
CCN1CCN(CCNC(=O)c2ccc3c(c2)c(C)c(C)n3CC)CC1 | -5.09
CCC(C)NC(=O)C1=CCN(S(=O)(=O)c2ccc(F)cc2)CC1 (stereo not shown) | 3.59
Cc1cc(S(=O)(=O)N(Cc2ccccc2)Cc2ccccc2Cl)ccc1-n1cnnn1 | 58.7
COC(=O)c1cc(S(=O)(=O)N(CCCN2CCOCC2)Cc2ccco2)c[nH]1 | -4.33
CCOc1cc(/C=C2/SC(=O)N(CC(=O)N3CCOCC3)C2=O)ccc1OC | -5.82
CSc1nc(-c2ccc(C)cc2)nc(O)c1C#N | -2.8
CCOc1ccc(S(=O)(=O)N(CC(=O)Nc2cccc3ccccc23)c2ccccc2)cc1 | 4.08
COc1ccc(-c2nc3ccccn3c2NC(=O)CC(C)C)cc1 | 2.17
Cc1ccc(CN2CCC(CNC(=O)CCc3c(C)nc4c(c3C)c(=O)n(C)c(=O)n4C)C2)cc1 (stereo not shown) | 3.75
Cc1ccc(CNC(=O)c2sc3nc4n(c(=O)c3c2C)CCC4)cc1 | -5.69
Cc1ccc(S(=O)(=O)N2CCCC(C(=O)NCc3ccco3)C2)cc1 (stereo not shown) | 5.94
CCOc1ccc2[nH]c(CO)nc2c1 | -0.92
Cc1ccc(-n2ncc(C(=O)NCc3ccccn3)c2C2CCN(C(=O)OC(C)(C)C)CC2)cc1 | -5.97
NS(=O)(=O)c1ccc2ccc(O)cc2c1 | 0.847
CS(=O)(=O)N1CCC(C(=O)NCc2ccc3c(c2)OCO3)CC1 | 0.387
COc1cccc(OC)c1C(=O)Nc1ccc(Cl)cc1 | -3.29

SMILES | % Inhibition @ 10 uM [%]
COc1ccc(N2C(=O)c3ccccc3NC2c2ccccc2)cc1 (stereo not shown) | -3.26
CCCCNc1nc(SCc2cc(C(C)=O)ccc2OC)nc2ccccc12 | -0.456
O=C(NCc1ccccc1Cl)C1CCCN(S(=O)(=O)N2CCC3(CC2)OCCO3)C1 (stereo not shown) | -2.56
NCC(O)CNCCc1ccccc1 (stereo not shown) | 3.25
CCN(CC)CCNC(=O)c1cccc(OC)c1 | -0.0619
CC(=O)N1CCN(CC(c2ccccc2)c2ccccc2)CC1 | -3.15
CN(CCCNC(=O)Cn1cccc1C(=O)c1ccccc1)C1CCCCC1 | -4.26
O=C(CCC(=O)Nc1nc(-c2cc3ccccc3oc2=O)cs1)NCc1ccccc1Cl | -2.03
COc1ccc2c(c1)CC/C(=C\c1ccc3nccnc3c1)C2=O | 8.9
C#CCOc1ccc(/C=C2\C(=O)ON=C2C)cc1OC | -0.85
COCCCNC(=O)c1c(NC(=O)c2cc(=O)c3ccc(C)cc3o2)sc2c1CCCC2 | 0.248
O=C(O)C1CCN(C(=O)c2ccccc2C(=O)N2CCC(C(=O)O)CC2)CC1 | -3.47
Cc1ccc(C(C)C)cc1Oc1cc(Cl)nc(N)n1 | -2.41
CCN(C(=O)c1c(Cl)nc(C)c(Cl)c1C)c1ccccc1 | 1.64
COc1cc(OC)cc(C(=O)Nc2nc(-c3nnn(-c4cc(F)ccc4F)c3C)ns2)c1 | -1.19
CC(NC(=O)c1ccccc1N(C)S(C)(=O)=O)c1ccccc1 (stereo not shown) | -3.77
Cc1ccc(OCCSCc2nc3ccccc3[nH]2)cc1 | -1.74
Cc1ccc(C(=O)N/C(=C/C=C/c2ccccc2)C(=O)N2CC3CC(C2)c2cccc(=O)n2C3)cc1C (stereo not shown) | 19
CCOc1ccc(CCNC(=O)c2oc3cc4sc(N(C)C)nc4cc3c2C)cc1 | -3.81
Cc1ccc(S(=O)(=O)NCC(C)NS(=O)(=O)c2ccc(C)cc2)cc1 (stereo not shown) | -3.72
CC1CCN(S(=O)(=O)c2cccc3cccnc23)CC1 | 9.33
CCc1ccccc1-n1c(SCC(=O)N2CCCC2)nc2nncc-2c1O | -2.21
Cc1ccc(/C=C2\N=C(c3ccc(Br)o3)OC2=O)cc1 | 0.78
Cc1noc2ncnc(N3CCCC(C(=O)Nc4nccs4)C3)c12 (stereo not shown) | 3.53
CC(=O)c1ccc(C2CCC(C(C)=O)CC2)cc1 (stereo not shown) | -3.26

SMILES | % Inhibition @ 10 uM [%]
CCOc1ccc(C2C(C#N)=C(N)SC(N)=C2C#N)cc1OC | 57.7
CC(=O)c1cc(-c2ccccc2)n(CC(=O)NCCc2ccccc2)c1C | 1.47
CC(=O)c1ccc(N2CCN(C(=O)c3cccc(F)c3F)CC2)c(F)c1 | -6.08
NS(=O)(=O)c1ccc(NC(=O)/C=C/c2ccccc2)cc1 | -1.86
CN(C)CCN(C)Cc1ccc(Cl)cc1Cl | -0.856
COc1ccccc1N1CCN(C(=O)CN(c2cccc(C)c2)S(=O)(=O)c2ccc(C)cc2)CC1 | -9.13
CC(=O)Nc1ccc(S(=O)(=O)Nc2ccc(F)cc2)cc1 | -1.77
COc1ccc(C2CC(O)=C/C(=N/c3ccccc3C)C2)cc1OC (stereo not shown) | -4.48
CC1CCN(C(=O)C2CC(c3ccc(F)cc3)=NO2)CC1 (stereo not shown) | 1.24
FC(F)(F)c1cc(-c2ccco2)nc(NCC2CCCO2)n1 (stereo not shown) | 1.83
Clc1ccc(OCc2nnc3c4cnn(Cc5ccccc5)c4ncn23)cc1 | 1.31
CC1CCCN(C(=O)Cn2nnc(-c3ccccc3F)n2)C1 (stereo not shown) | 2.17
CCCCOc1ccc(/C=C2\SC(=O)NC2=O)cc1 | 3.86
Nc1ccccc1C(=O)Nc1ccc(Cl)cc1 | -0.95
CCCCS(=O)(=O)c1oc(-c2cccs2)nc1S(=O)(=O)c1ccc(C)cc1 | 3.74
Cc1cc(C)n(CCc2nc3c4ccccc4nc(SCC(=O)NCc4ccccc4)n3n2)n1 | 1.74
COC(=O)c1cc2nc(-c3ccc(F)cc3)cc(C)n2n1 | -1.93
O=C(Nc1ccccc1)NS(=O)(=O)c1cnccc1Sc1ccccc1Cl | -0.46
COc1ccc(C2C(=O)N(C3CCCCC3)CC(=O)N2Cc2cccs2)cc1OC (stereo not shown) | 1.27
O=C1C2C(C(=O)N1c1ccc(F)cc1)C1C=CC2C12CC2 (stereo not shown) | -1.06
O=S(=O)(c1ccc(-c2csc(-c3ccc(Cl)cc3)n2)cc1)N1CCCC1 | -2.73
COCCNC(=O)CSc1cn(CC(=O)N2CCOCC2)c2ccccc12 | -4.02
COc1ccc(N(CC(=O)Nc2cc(C)cc(C)c2)S(C)(=O)=O)cc1 | -9.2
CCCCCCS(=O)(=O)C1CCS(=O)(=O)C1 (stereo not shown) | -0.0267
CN1CCN(Cc2c(O)ccc3c4c(c(=O)oc23)CCC4)CC1 | 3.25
